Source: publication PMC4336329 (PLoS ONE, 2015)
About 2,200 (0.71%) of roughly 310,000 compounds showed an effect of 50% or more. The effect is printed as a negative number. The list shows a part of the results.

The compounds below were run against human ether-à-go-go-related gene (hERG) potassium channel (human, UniProt Q12809) (assay: primary screen, population patch clamp on CHO cells stably expressing hERG).
Sequence of human ether-à-go-go-related gene (hERG) potassium channel (Q12809 whole entry, looked up): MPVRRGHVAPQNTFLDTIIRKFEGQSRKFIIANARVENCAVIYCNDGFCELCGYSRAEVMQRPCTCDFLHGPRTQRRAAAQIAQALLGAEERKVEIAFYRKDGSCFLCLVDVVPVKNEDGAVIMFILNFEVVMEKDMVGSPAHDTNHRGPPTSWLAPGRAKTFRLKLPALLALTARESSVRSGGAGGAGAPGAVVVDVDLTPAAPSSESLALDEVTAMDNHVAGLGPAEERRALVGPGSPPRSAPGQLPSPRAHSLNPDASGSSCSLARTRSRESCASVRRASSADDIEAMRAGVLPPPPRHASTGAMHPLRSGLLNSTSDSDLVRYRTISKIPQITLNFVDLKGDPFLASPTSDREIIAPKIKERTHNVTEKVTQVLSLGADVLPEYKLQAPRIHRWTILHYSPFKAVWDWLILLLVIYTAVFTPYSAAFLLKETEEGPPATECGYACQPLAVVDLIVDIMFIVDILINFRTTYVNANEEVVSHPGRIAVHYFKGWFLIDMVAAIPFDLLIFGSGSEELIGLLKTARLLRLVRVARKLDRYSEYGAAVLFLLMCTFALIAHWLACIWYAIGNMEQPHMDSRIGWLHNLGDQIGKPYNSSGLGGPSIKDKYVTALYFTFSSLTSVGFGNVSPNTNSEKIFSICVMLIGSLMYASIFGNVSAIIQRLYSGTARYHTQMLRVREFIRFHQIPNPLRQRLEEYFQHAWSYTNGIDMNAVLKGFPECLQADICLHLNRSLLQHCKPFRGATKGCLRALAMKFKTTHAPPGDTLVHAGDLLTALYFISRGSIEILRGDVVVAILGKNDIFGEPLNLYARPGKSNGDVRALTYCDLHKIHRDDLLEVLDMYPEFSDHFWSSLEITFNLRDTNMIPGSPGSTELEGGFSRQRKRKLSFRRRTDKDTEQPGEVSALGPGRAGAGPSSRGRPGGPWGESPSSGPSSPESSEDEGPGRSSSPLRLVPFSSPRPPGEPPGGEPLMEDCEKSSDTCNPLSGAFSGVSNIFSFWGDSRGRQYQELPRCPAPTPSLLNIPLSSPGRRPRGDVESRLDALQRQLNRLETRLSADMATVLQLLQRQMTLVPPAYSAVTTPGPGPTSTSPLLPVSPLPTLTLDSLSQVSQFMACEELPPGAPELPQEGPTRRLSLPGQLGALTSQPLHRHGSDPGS

SMILES | hERG current change (%, negative = inhibition) at 1uM [%]
O=c1c(/C=N/O)coc2ccc(Cl)cc12 | 16.3
C=CCn1c(=O)[nH]c2cc(C(=O)N3CCN(c4cccc(Cl)c4)CC3)ccc2c1=O | -0.995
Cc1cc(N/N=C/c2c(O)ccc3ccccc23)nc(-c2ccccc2O)n1 | -5.67
O=C(NNS(=O)(=O)c1ccccc1F)c1sccc1-n1cccc1 | 6.96
C/C(=N\Nc1ccccc1)c1c(O)n(C)c(=O)n(C)c1=O | 8.67
Cc1ccc(-c2nnc(SCC(=O)n3c4c(c5ccccc53)CCCC4)o2)cc1 | 7.07
COc1ccc(/C=N/n2c(SC)nnc(C(C)(C)C)c2=O)cc1 | 15
CC1(C)CC(=O)C=C(Nc2ccccc2NC(=O)c2cnccn2)C1 | -46.7
Cc1ccc(NC(=O)C2OCCc3ccccc32)cc1 (centres unmarked) | 9.81
CCCn1c(=N)n(CC(O)COc2cccc(C)c2)c2ccccc21.Cl (centres unmarked) | -60
CCn1nc(C)c(CN2CCC(C(=O)Nc3cccc(-c4cccc(F)c4)c3)CC2)c1C | -6.47
Br.O=C(CN1C2=NCCN2c2ccccc21)c1ccc(Br)cc1 | -28.4
Cc1ccc(Cl)cc1-n1c(SCC(=O)NCCC2=CCCCC2)nc2n[nH]c(C)c2c1=N | 1.08
CCOC(=O)Cc1csc(NC(=O)COc2cccc(C)c2)n1 | 15.5
CCOC(=O)c1c(C)[nH]c(C(=O)COc2ccc3c(c2)OCO3)c1C | 6.04
CCN(CC)S(=O)(=O)c1cccc(C(=O)N/N=C/c2ccc(OC)c(O)c2)c1 | 2.17
O=C(O)c1ccc(/C=N/N2CCN(C3c4ccccc4-c4ccccc43)CC2)cc1 | 15.6
Nc1nc2ccccc2cc1-c1cccs1 | 14.5
c1coc(-c2ccnc3ncnn23)c1 | 13.9
CC(C)(C)NC(=O)NC(=O)CSc1ccc(S(=O)(=O)N2CCOCC2)cn1 | -1.99
COc1ccccc1/C=N\NC(=O)c1ccc(COc2ccc(C)c(C)c2)o1 | 7.09
CCC(=O)Nc1ccc2c(c1)ncn2C | 18

SMILES | hERG current change (%, negative = inhibition) at 1uM [%]
CS(=O)(=O)N(CC(=O)N1CCOCC1)c1ccc(Cl)cc1 | 11.9
COc1ccc(OC)c(Nc2nc(-c3sc(NC(=O)c4ccccc4)nc3C)cs2)c1 | -9.63
CN1CCN(c2ccc(NC(=O)c3ccco3)cc2Cl)CC1 | -2.05
CN(CC(=O)Nc1ccccc1Cl)C(=O)CCSc1ccc(F)cc1 | 4.34
COc1cccc(N2CCN(c3ccc4nnc(CCC(=O)Nc5ccc(F)cc5)n4n3)CC2)c1 | 11.1
CCc1c(C)nc2ncnn2c1N1CCCC(C(=O)NCc2cccs2)C1 (centres unmarked) | 12.3
Cc1ccc(C)c(NC(=O)C2=CCN(S(=O)(=O)c3ccc(F)cc3)CC2)c1 | 13.6
O=C1NC(=O)N(c2ccccc2)C(=O)/C1=C\c1ccc([N+](=O)[O-])s1 | 16.8
Cc1ccc(-n2nc(C)c3c(C)c(CCC(=O)NC(C)c4ccccc4)c(C)nc32)cc1 (centres unmarked) | 12.2
CCn1c(-c2csc3ccccc23)n[nH]c1=S | 5.38
O=C(O)c1cccnc1Br | 5.58
NNC(=O)CNC(c1ccccc1)c1cc(Br)ccc1NC(=O)c1cccc(Cl)c1 (centres unmarked) | 7.62
CC(C)c1ccc(NC(=O)C2CSC3(C)CCC(=O)N23)cc1 (centres unmarked) | 10.9
Cc1cc(C)c(C#N)c(N2CCN(c3ccccc3)CC2)n1 | 16.3
COc1ccc(C(=O)Oc2cc3c4c(c2)C(C)=CC(C)(C)N4C(=O)C3=O)cc1OC | 15.1
CCOC(=O)c1ccc(NC(=O)C2CCCN(c3cnccn3)C2)cc1 (centres unmarked) | -3.2
COc1cccc(Nc2ccc(N3CCCCC3)cc2)c1OC | 8.03
Cc1cccc(C(=O)N/N=C/c2ccccn2)c1 | 0.412
Cc1ccc(C)c(S(=O)(=O)N2CCN(C(=O)c3ccccc3Cc3ccccc3)CC2)c1 | 5.9
O=C1NC2=C(C(=O)OC2)C(c2ccc(OC(F)(F)F)cc2)N1 (centres unmarked) | 9.09
CCCNC(=O)c1c(CSc2ccccc2)noc1C(=O)NCc1ccccc1 | 4.19
COc1cccc(-c2cc(C(=O)N3CCN(c4ncccn4)CC3)c3ccccc3n2)c1 | 13.5
